# Measured values reported in PubChem BioAssay AID1345083 (National Center for Advancing Translational Sciences (NCATS), 2018).
# Among all 94,000 compounds or so, about 6,200 (6.6%) were called active. Inconclusive means that the source gave no clear call. Such entries were picked first, then a sample of the others. The call rests on the fitted dose curve; in most records, active means well fitted inhibition curve with a large enough effect; inconclusive means small, poorly fitted or top-dose-only effect; inactive means flat fitted curve, though single readings scatter. Potencies of inconclusive entries are doubtful fits and often do not repeat.
# Assay: Cytotoxic Profiling in HEK 293 Cell Line of Diverse Libraries Using Quantitative High-Throughput Screening; further: nearly all actives have a fitted effect of over 60% in size
# Settings: HEK 293 viability, ATP luminescence (CellTiter-Glo), 48-72 h; activity change, negative = cytotoxicity: at 115 µM (top of the series) unless noted; series mostly up to 115 µM
# Outline: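 Cytotoxicity was scored by loss of ATP-coupled luminescence (CellTiter-Glo) in HEK 293 cells. Compound treatment ran 48 or 72 hr at 37 degree Celsius, 5% CO2, 95% humidity.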
# On the % scale 0 is the no-effect control and ±100 the full control effect; potency means the concentration at half of the fitted maximal effect; tags describe the fitted curve by direction and shape.
SMILES,Potency,"activity change, negative = cytotoxicity"
COc1ccc(C(=O)N2CCC(n3cc(-c4nc(C5CC5)no4)nn3)C2)cc1F (configuration not stated),"inconclusive: 70.8 µM [inhibitor, single point]",–
CCOC(=O)C1CCN(C(=O)C2CCCN(Cc3cccc(-c4ccsc4)c3)C2)CC1 (configuration not stated),active: 35.5 µM,–
CCN(C(=O)CN1C(=O)C(c2ccccc2)=NC12CCCCC2)c1cccc(C)c1,active: 39.8 µM,–
CC(C)c1noc(-c2cn(C3CCN(C(=O)c4ccc5c(c4)OCO5)CC3)nn2)n1,"inconclusive: 89.1 µM [inhibitor, single point]",–
Cc1nsc(NC(=O)NC23CC4CC(C2)CC(C(C)C)(C4)C3)n1,active: 31.6 µM,–
COc1ccc(F)cc1-c1cccc(C(=O)NCCN[S+](=O)([O-])c2cccs2)c1,"inconclusive: 44.7 µM [inhibitor, partial curve, poor fit]",–
COCCN1CC2(CCOC2)N(C2CCN(C(=O)Cc3ccccc3F)CC2)C1=O (configuration not stated),–,inactive: 4.77%
CNC(=O)c1cc(C2CC2)nc2c1c(C1CCN(C(=O)NC3CCCC3)C1)nn2C (configuration not stated),–,inactive: -3.81%
COCC1CN(S(=O)(=O)c2cccc(F)c2)CC12CCOCC2 (configuration not stated),–,inactive: -10.8%
O=C(C1CCC1)N1CCN(Cc2ccc(=O)n(CC3CC3)c2)CC1,–,inactive: -19.7%
Cc1noc(C)c1Cc1ccc(C(=O)N2CCC(C)(c3noc(-c4ccccn4)n3)CC2)o1,active: 44.7 µM,–
CC(=O)N1CCN(C(=O)c2nc3sccn3c2-c2ccncc2)CC1,–,inactive: -7.33% [at 172 µM]
O=C(c1ccc(Cl)cc1)N1CC2(Cc3ccccc3NC2=O)C1,"inconclusive: 112 µM [inhibitor, single point]",–
Cc1cccc(CNC(=O)Cc2ccc(N(Cc3ccc(F)cc3)C(=O)c3ccco3)cc2)c1,"inconclusive: 50.1 µM [inhibitor, partial curve, poor fit]",–
Cc1cccc(-c2cccc(CN3CCC(NC(=O)c4ccccc4Cl)CC3)c2)c1,"inconclusive: 50.1 µM [inhibitor, partial curve, poor fit]",–
O=C(NC1CCCN(c2ccnc3ccnn23)C1)C1CCCC1 (configuration not stated),"inconclusive: 63.1 µM [inhibitor, full curve]",–
CC1=NS(=O)(=O)N(C)C=C1C(=O)OCc1nc(-c2ccc3c(c2)OCO3)no1,–,inactive: -10.1%
COC(=O)c1cccc(-c2nc(C3CC(=O)N(c4ccc(F)c(Cl)c4)C3)no2)c1 (configuration not stated),"inconclusive: 89.1 µM [inhibitor, single point]",–
Oc1cc(-c2nc3ccccc3s2)cc2c1OCCN(Cc1ncccn1)C2,"inconclusive: 56.2 µM [inhibitor, partial curve, poor fit]",–
O=C(Cc1ccc(Cl)cc1)Nc1cccc(-c2nnc3n2CCCC3)c1,active: 50.1 µM,–
CN(CC1CCOCC1)C(=O)c1cccc(Cl)c1,–,inactive: -1.85%
COc1cccc(C(=O)NC2CCCN(c3cc(-c4ccc(F)cc4)[nH]n3)C2)c1OC (configuration not stated),"inconclusive: 35.5 µM [inhibitor, partial curve, poor fit]",–
O=C(c1ccoc1)N1CCOc2ccc(CN3CCc4ccccc4C3)cc2C1,active: 39.8 µM,–

SMILES,Potency,"activity change, negative = cytotoxicity"
COc1cccc(C(=O)N2CCC3(CC2)N=C(c2ccc(Cl)cc2)NO3)c1,"inconclusive: 56.2 µM [inhibitor, partial curve, poor fit]",–
CSc1ccc(-c2cccc(CN3CCC(NC(=O)C(C)(C)C)CC3)c2)cc1,"inconclusive: 50.1 µM [inhibitor, partial curve, poor fit]",–
O=C(Nc1ccccc1)N1CCN(Cc2ccccc2-c2cccnc2)CC1,"inconclusive: 44.7 µM [inhibitor, partial curve, poor fit]",–
O=S(=O)(Cc1ccccc1F)N1CCCC(CN2CCOCC2)CC1 (configuration not stated),–,inactive: -28.1%
CN(C)CCNC(=O)C1(C)CN(Cc2ccccc2)Cc2ccc(Nc3ccccc3)nc21 (configuration not stated),active: 28.2 µM,–
CN1CCN(CC(=O)N2CCCC(c3ccc(Cl)cc3)C2)C1=O (configuration not stated),"inconclusive: 89.1 µM [inhibitor, single point]",–
CC(C)c1ccc(CNC(=O)[C@H]2CCC[C@H]2NC(=O)c2ccncc2)cc1,–,inactive: -6.02%
Clc1cccc(CN2CC(CNc3cccnc3)C3(C2)CN(c2ccccc2)C3)c1 (configuration not stated),"inconclusive: 31.6 µM [inhibitor, full curve]",–
Cc1ccc(Nc2ccnc(N3CCCC(C(=O)NCC(F)F)C3)n2)cc1 (configuration not stated),active: 44.7 µM,–
Cc1nc2ccccn2c1C(=O)NC(C)c1cnn(-c2ccccn2)c1C (configuration not stated),"inconclusive: 44.7 µM [inhibitor, partial curve, poor fit]",–
COc1ccc(-c2cc(N3CCCC(NC(=O)Cc4ccc(OC)c(OC)c4)C3)n[nH]2)cc1 (configuration not stated),active: 35.5 µM,–
Cn1cccc1CN1CCC2(CC1)COc1ccccc1C(=O)N2,"inconclusive: 100 µM [inhibitor, partial curve]",–
COCCCNC(=O)c1cc(C2CC2)nc2c1c(C1CCCN1)nn2-c1ccccc1 (configuration not stated),"inconclusive: 56.2 µM [inhibitor, partial curve, poor fit]",–
O=C(O)CCCC(=O)N1Cc2ccccc2CC2(CCCN(Cc3ccccc3)C2)C1 (configuration not stated),–,inactive: -3.1%
COc1ccc(-c2cc(C[C@H]3CNCC[C@H]3CC(=O)NCc3ccccc3OC)no2)cc1,"inconclusive: 79.4 µM [inhibitor, partial curve, poor fit]",–
Cc1ccccc1-c1nccc2c(=O)cc(-c3ccncc3)oc12,active: 100 µM,–
O=C1c2c(nc(CNCc3ccc4c(c3)OCO4)n2Cc2ccccc2)NCCN1Cc1ccccc1,"inconclusive: 35.5 µM [inhibitor, partial curve, poor fit]",–
Cc1ccc(CNC(=O)c2ccc3c(c2)N(C)C2CCCCCN2C3=O)cc1C (configuration not stated),"inconclusive: 44.7 µM [inhibitor, partial curve]",–
CCCS(=O)(=O)N1CCCC(Cn2c(C3CC3)nc3cccnc32)C1 (configuration not stated),"inconclusive: 100 µM [inhibitor, single point]",–
COc1ccccc1C(=O)NC1CCCc2c1[nH]c1ccccc21 (configuration not stated),"inconclusive: 39.8 µM [inhibitor, full curve, poor fit]",–
Cc1ccc2nc(C3CCCN(Cc4cccs4)C3)[nH]c(=O)c2c1 (configuration not stated),"inconclusive: 39.8 µM [inhibitor, full curve]",–
O=C(NC1CCOCC1)c1ccc2c(c1)C1(CCN(CC3CC3)C1)CN2Cc1ccccc1 (configuration not stated),"inconclusive: 50.1 µM [inhibitor, partial curve, poor fit]",–
Cc1cc(F)cc(CN2CCc3nc(C(=O)NCc4ccncc4)oc3CC2)c1,"inconclusive: 56.2 µM [inhibitor, partial curve, poor fit]",–

SMILES,Potency,"activity change, negative = cytotoxicity"
CSCc1noc(CNC(=O)c2ccc(-c3ccccc3Cl)o2)n1,"inconclusive: 79.4 µM [inhibitor, partial curve]",–
Cc1cc(C(=O)NC2CCc3nnc(C)n3CC2)c(C)n1Cc1ccco1 (configuration not stated),"inconclusive: 89.1 µM [inhibitor, single point]",–
Clc1ccc2oc([C@H]3CCN(Cc4ccccn4)C3)nc2c1,"inconclusive: 100 µM [inhibitor, partial curve]",–
COc1ccc(S(=O)(=O)NCC2Cn3cccc3C(=O)N2Cc2ccccc2)cc1 (configuration not stated),"inconclusive: 89.1 µM [inhibitor, single point]",–
Cc1c(-c2ccccc2)[nH]c2c(CNC(=O)CCn3cnnn3)cc(Cl)cc12,"inconclusive: 50.1 µM [inhibitor, partial curve, poor fit]",–
COCCNC(=O)[C@@H]1CCC[C@@H](NC(=O)C(C)(C)C)CN(C)C(=O)C1,–,inactive: -8.1% [at 172 µM]
COc1ccc(-c2c(C(=O)NCc3ccc(F)c(F)c3)nc3sccn23)cc1,"inconclusive: 89.1 µM [inhibitor, partial curve, poor fit]",–
O=C(Cc1ccc(F)cc1)NCCNC(=O)c1ccc(-c2cncnc2)cc1,–,inactive: -4.91%
COc1cccc(C(=O)N2CCCC2c2nc(C3CCOCC3)no2)c1 (configuration not stated),–,inactive: -0.772%
O=C(NCCc1ccc(Cl)cc1)C1CCN(Cc2ccccc2-c2ccccc2F)CC1,active: 31.6 µM,–
O=C(NCc1cccc(C(F)(F)F)c1)c1nc2sccn2c1-c1ccccc1,"inconclusive: 100 µM [inhibitor, single point]",–
Cc1ccc(CN2CCc3nc(C(=O)Nc4cccnc4)oc3CC2)o1,"inconclusive: 89.1 µM [inhibitor, partial curve]",–
Cc1cc(Cl)ccc1S(=O)(=O)N1C[C@@H](C(N)=O)[C@H](C2CCN(C)CC2)C1,–,inactive: -0.0796%
O=C(NCc1cccc(C(F)(F)F)c1)c1cc(-c2ccc(F)cc2)c2nncn2n1,"inconclusive: 39.8 µM [inhibitor, partial curve]",–
COc1cc(CN2CCN(c3ncnc(C)c3C)CC2CCO)cc(OC)c1 (configuration not stated),"inconclusive: 17.8 µM [inhibitor, full curve, poor fit]",–
C=CCNC(=O)C(NC(=O)c1cccc(OC)c1)C1CCN(C(=O)c2ccccc2F)CC1 (configuration not stated),–,inactive: -9.02%
CN1CCN(C(=O)c2cc(-c3ccc(C(F)(F)F)cc3)nc3c2cnn3C)CC1,"inconclusive: 79.4 µM [inhibitor, partial curve]",–
O=C(NCc1ccc(F)cc1)c1nc2sccn2c1-c1ccccc1,–,inactive: -7.42%
Cc1ccc2c(c1)N1C(=O)OC[C@@H]1CCN(Cc1cccc(Cl)c1)C2,"inconclusive: 89.1 µM [inhibitor, partial curve]",–
CC(=O)N1CC2(Cc3ccccc31)CN(C(=O)c1ccc(C(F)(F)F)cc1)C2,"inconclusive: 79.4 µM [inhibitor, single point]",–
Cc1ccc(NC(=O)N2CCc3c(C(=O)NC(C)c4cccnc4)cccc32)cc1 (configuration not stated),"inconclusive: 44.7 µM [inhibitor, partial curve, poor fit]",–
